# Test results from PubChem BioAssay AID485344 (National Center for Advancing Translational Sciences (NCATS), 2010).
# Among all 340,000 compounds or so, about 6,900 (2%) were called active. No stated cut-off is given here; in the data, active means inhibition above about 30%; inactive means below that, where a call was filed. This is a selection; strong and weak results do not stand in their true shares. The source gives no active or inactive call for entries shown without one.
# Biological target: D(2) dopamine receptor (Homo sapiens) (UniProt P14416)
# UniProt P14416, sequence (P14416 whole entry, looked up): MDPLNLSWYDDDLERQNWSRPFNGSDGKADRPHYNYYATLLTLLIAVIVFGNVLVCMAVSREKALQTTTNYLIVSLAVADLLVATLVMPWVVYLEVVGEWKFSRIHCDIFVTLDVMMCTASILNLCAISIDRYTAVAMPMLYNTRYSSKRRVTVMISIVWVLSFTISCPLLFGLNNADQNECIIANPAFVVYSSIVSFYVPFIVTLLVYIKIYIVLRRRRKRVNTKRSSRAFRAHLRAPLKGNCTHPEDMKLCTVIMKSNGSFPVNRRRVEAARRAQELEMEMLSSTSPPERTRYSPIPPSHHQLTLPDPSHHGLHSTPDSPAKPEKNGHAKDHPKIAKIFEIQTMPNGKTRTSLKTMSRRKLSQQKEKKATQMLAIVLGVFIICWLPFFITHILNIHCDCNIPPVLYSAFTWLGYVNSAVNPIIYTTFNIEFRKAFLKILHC
# Test: HTS Assay for Allosteric Antagonists of the Human D2 Dopamine Receptor: Primary Screen for Antagonists; further: 0% is about no effect
# Conditions: HEK293 TREx D2 cells, calcium flux, dopamine EC80; at 10 µM; stronger effect = higher value
# Text: NIH Chemical Genomics Center [NCGC] NIH Molecular Libraries Probe Centers Network [MLPCN] MLPCN Grant: NS064831-01 Assay Submitter (PI): David Sibley Dopamine receptors (DARs) are involved in the etiology and/or therapy of a number of neuropsychiatric and endocrine disorders. For instance, all receptor-based antiparkinsonian drugs work via stimulating the D2 DAR subtype whereas all FDA-approved antipsychotic agents are antagonists of this receptor. […] There are three different types of allosteric modulators that we are seeking, two of which will stimulate or augment receptor signaling, allosteric agonists and potentiators, while the third, allosteric antagonists, will attenuate receptor signaling. The present primary screening assay measures compound antagonism after an EC80 addition of dopamine by tracking calcium flux in a […], inducible Hek293 Trex D2 cell line.
# Freshly passaged cells are plated in 1536 well black, clear bottom plates at a density of 4000 cells/well in 3 ul of complete media containing 1x tetracycline inducer. After an overnight incubation at 30 C in 5% CO2, cells are loaded with 2 ul of the no wash Calcium Assay Kit (ABD Bioquest) and incubated at room temperature for 30 to 90 minutes. Agonist read: A 10 cycle (1 second/cycle) baseline measurement is taken and then the FDSS online 1536 pintool delivers 23 nl of compound library (as well as dopamine controls) to the plate. The plate is measured for kinetically at 1 cycle/sec for 180 seconds. Following the 180 second read, 1 ul of an EC80 (negative modulation assay) is delivered by an onboard pipette head. Measurements are taken kinetically for an additional 180 seconds.
row,SMILES,inhibition
1,Cc1ccc(NC(=O)c2cccc(S(=O)(=O)N3CCc4ccccc4C3)c2)nc1,active: 30.5%
2,CCc1ccc2c(c1)-c1ccccc1S(=O)(=O)N2CC(=O)N1CCC(C)CC1,0.239%
3,Cc1ccccc1C(=O)NC(=S)NC1CC1,active: 31.1%
4,Cc1ccccc1CNC(=O)CCC(=O)N1CC2CCCN2c2ccccc21 (configuration not stated),6.11%
5,Cc1cc(O)c(-c2ccnc3cc(-c4ccccc4)nn23)cc1Cl,-5.41%
6,CCOc1ccccc1C(=O)N(Cc1cccs1)c1ccc(Cl)cc1,-13.8%
7,COc1cc2ccccc2cc1C(=O)Nc1ccc2oc(-c3ccccc3)nc2c1,2.4%
8,Cc1ccc(Nc2cc(C(=O)NCc3cccs3)c3ccccc3n2)c(C)c1,3.65%
9,Cc1ccc(CCNC(=O)c2cc(-c3ccc(Cl)cc3)n[nH]2)cc1,23.2%
10,Cc1ccc(NC(=O)c2ccc3[nH]c(C)cc(=O)c3c2)c(C)c1,12.2%
11,Cc1ccc(NC(=O)Cc2coc3c(C)c(C)ccc23)cc1Cl,8.1%
12,COc1ccc(Nc2ncc3c(n2)CCN(C(=O)OC(C)(C)C)C3)cc1,1.68%
13,COc1ccccc1CN1CCN(C2CCN(C(=O)NC(C)C)CC2)C(=O)C1=O,18.2%
14,CCCCn1c(=O)c2c(nc3n2CCCN3Cc2ccccc2)n(C)c1=O,active: 34.2%
15,Cc1nn(CC(=O)Nc2cccc(C(F)(F)F)c2)c(=O)c2nn(-c3ccccc3)c(C)c12,5.66%
16,COc1ccc(OC)c(NC(=O)C(=O)NNC(=O)c2cccs2)c1,active: 38.1%
17,CN(C(=O)CSc1nc2ccccc2n1Cc1cccc(C(F)(F)F)c1)c1ccccc1,-23.8%
18,CCOc1ccc(-n2c(=O)c3c(C)c(C)sc3n(Cc3cc(=O)n4cc(Cl)ccc4n3)c2=O)cc1,0.521%
19,CC(C)CSc1oc(-c2ccco2)nc1S(=O)(=O)c1ccc(Br)cc1,-12.9%
20,CCOc1ccc(-n2c(SCC(=O)NC)nnc2-c2ccco2)cc1,active: 36.3%
21,O=C(NCCc1csc(-c2ccc(F)cc2)n1)c1c(F)cccc1Cl,1.05%

row,SMILES,inhibition
1,O=C(COC(=O)c1cc(-c2ccccc2)nc2c(Cl)cccc12)c1ccc(F)cc1,11.5%
2,COc1ccc(C)cc1NC(=O)CC(=O)Nc1ccc2nc3n(c(=O)c2c1)CCCCC3,-8.88%
3,CCOc1ccc(C2=CC(c3cc(Br)ccc3F)n3ncnc3N2)cc1Cl (configuration not stated),4.81%
4,Cc1cccc(Cn2c(=O)oc3ccc(C)cc32)c1,active: 31.5%
5,O=S(=O)(c1ccccc1)N1CCC(N2CCN(c3ccccc3)CC2)CC1,active: 70.7%
6,COc1ccc(CNC(=O)c2cc(C)nc3c2c(C)nn3-c2cccc(Cl)c2C)cc1,-1.77%
7,CC(C)CN(CCCNC(=O)c1cn(C)c2ccc(S(=O)(=O)N(C)C3CCCCC3)cc2c1=O)CC(C)C,-20.2%
8,COc1cccc(NC(=O)C(CCSC)NC(=O)C2CCC(C)CC2)c1 (configuration not stated),-6.11%
9,CCn1cc(C(=O)N2CCN(c3ccc(OC)cc3)CC2)c(=O)c2cc(S(=O)(=O)N(C)C3CCCCC3)ccc21,5.08%
10,COc1cccc(CNC(=O)c2nn(C)c3c2CS(=O)(=O)c2ccccc2-3)c1,0.407%
11,O=C(CSc1nnc(NC(=O)c2ccccc2F)s1)Nc1ccccc1F,active: 36%
12,O=C(NCc1ccco1)c1ccc2c(c1)N(Cc1ccccc1F)C(=O)c1ccccc1S2=O (configuration not stated),15.2%
13,COc1ccc(NC(=O)CSC2=Nc3ccccc3C3=NC(CCC(=O)NCCc4ccccc4)C(=O)N23)c(OC)c1 (configuration not stated),-6.32%
14,COc1ccc(OCc2cc(C(=O)NC(C)Cc3ccccn3)no2)c(Cl)c1 (configuration not stated),active: 32.5%
15,COc1ccc(CNC(=O)c2cc3cccc(OC)c3oc2=O)cc1,-1.35%
16,Cc1ccc(NC(=O)Cn2c(=O)c(CNc3ccccc3)cc3cc4c(cc32)OCCO4)cc1,-20.4%
17,COC(=O)c1ccc(NC(=O)CSc2n[nH]c(CC(C)C)n2)cc1,6.33%
18,Cc1cccc(C)c1NC(=O)CSCc1cnn(-c2ccccc2)c1-n1cccc1,6.71%
19,CCC(Sc1nc2ccccc2c2nc(CCc3c(C)n[nH]c3C)nn12)C(=O)Nc1ccccc1F (configuration not stated),11.7%
20,COc1ccccc1Cn1c(CNS(=O)(=O)c2cccc([N+](=O)[O-])c2)nc2cccnc21,9.16%
21,COc1ccc(C)cc1NC(=O)CCn1nc(C)cc1C,1.98%

row,SMILES,inhibition
1,Cc1ccc(-c2nonc2NC(=O)c2ccco2)cc1C,1.24%
2,COc1cc(CNc2ccc3[nH]c(=O)[nH]c3c2)cc(Cl)c1OCc1ccccc1F,7.3%
3,Cc1ccc(-c2nc3ccccc3[nH]2)cc1NC(=O)COc1cccc(C)c1C,8.45%
4,Cc1ccc(CNC(=O)c2ccc3c(c2)N(Cc2cccc(C)c2)C(=O)CS3)cc1,-7.76%
5,Cc1ccc(-c2nn(CC(=O)Nc3cccc(C(F)(F)F)c3)c(=O)c3ccccc23)cc1,2.37%
6,Cc1oc(C)c2c(=O)cc(-c3ccc4c(c3)OCO4)cc(OC(=O)c3ccc(Cl)cc3)c12,8.12%
7,CCN(Cc1ccccc1)C(=O)Cn1c(=O)n(-c2ccc(F)c(Cl)c2)c(=O)c2sc3ccccc3c21,5.82%
8,Cc1cccc(C)c1OCCSc1nc2ccccc2n1CC(=O)O,-2.11%
9,O=C(Nc1cccc(-c2nc3ccccc3o2)c1)c1cc([N+](=O)[O-])ccc1N1CCOCC1,16.2%
10,COC(=O)CC1Oc2ccc(F)cc2-n2cc(-c3ccc(Cl)cc3)nc21 (configuration not stated),-12.5%
11,CC(=O)Nc1ccc(NS(=O)(=O)c2ccc3c(c2)CC(C)N3C(=O)C2CCC2)cc1 (configuration not stated),0.607%
12,COc1ccc(-c2nc3c4cnn(-c5ccccc5F)c4ncn3n2)cc1,-12.7%
13,COc1ccc(NC(=O)CN2CCCN(S(=O)(=O)c3ccc(Br)cc3)CC2)c(OC)c1,-0.539%
14,Cc1cccc(-c2nc(CCNC(=O)c3ccco3)cs2)c1,9.52%
15,CCOC(=O)c1ccc(NC(=O)CCS(=O)(=O)c2ccc(C)cc2)cc1,-9.14%
16,CC(C)OCCCNC(=O)CCCn1c(=O)[nH]c2ccsc2c1=O,23.1%
17,Cc1ccc(CNC(=O)C2CCC(CNS(=O)(=O)c3ccc4c(c3)CCCC(=O)N4)CC2)cc1 (configuration not stated),-5.65%
18,Cc1cc(C)cc(Nc2cc(C(=O)NCCCN(Cc3ccccc3)C(C)C)c3ccccc3n2)c1,-13.1%
19,CCOc1ccc(CNC(=O)c2cc(=O)[nH]c3ccc(S(=O)(=O)N4CCCCC4)cc23)cc1,0.564%
20,COc1ccc(CN(C(=O)c2cc3ccccc3oc2=O)C2CCS(=O)(=O)C2)cc1 (configuration not stated),1.74%
